± gives the standard deviation of the averaged measurements. Laboratory Escherichia coli strains with one amino-acid change in an essential protein, pooled on minimal glucose agar with carbenicillin or gentamicin at twice the control MIC (plus kanamycin and chloramphenicol for the plasmids), 48 h. Fold change of barcode share against drug-free plates; higher = less susceptible. Active = above 20 in both replicates (the paper's putatively resistant). '<' = one read or none on drug, '>' = one read or none on a drug-free plate. Shares are relative, so most strains fall below 1 when a few take over. Listed are strains with at least 15 reads on both drug-free plates, and hits; most hits rest on fewer reference reads. Replicate rank correlation about 0.5. Edits are read from barcodes.
B1: fmt; numbered along this chain (parent)
chain: MSESLRIIFAGTPDFAARHLDALLSSGHNVVGVFTQPDRPAGRGKKLMPSPVKVLAEEKGLPVFQPVSLRPQENQQLVAELQADVMVVVAYGLILPKAVLEMPRLGCINVHGSLLPRWRGAAPIQRSLWAGDAETGVTIMQMDVGLDTGDMLYKLSCPITAEDTSGTLYDKLAELGPQGLITTLKQLADGTAKPEVQDETLVTYAEKLSKEEARIDWSLSAAQLERCIRAFNPWPMSWLEIEGQPVKVWKASVIDTATNAAPGTILEANKQGIQVATGDGILNLLSLQPAGKKAMSAQDLLNSRREWFVPGNRLV
B2: leuB; numbered along this chain (parent)
chain: MSKNYHIAVLPGDGIGPEVMTQALKVLDAVRNRFAMRITTSHYDVGGAAIDNHGQPLPPATVEGCEQADAVLFGSVGGPKWEHLPPDQQPERGALLPLRKHFKLFSNLRPAKLYQGLEAFCPLRADIAANGFDILCVRELTGGIYFGQPKGREGSGQYEKAFDTEVYHRFEIERIARIAFESARKRRHKVTSIDKANVLQSSILWREIVNEIATEYPDVELAHMYIDNATMQLIKDPSQFDVLLCSNLFGDILSDECAMITGSMGMLPSASLNEQGFGLYEPAGGSAPDIAGKNIANPIAQILSLALLLRYSLDADDAACAIERAINRALEEGIRTGDLARGAAAVSTDEMGDIIARYVAEGV
B3: pgsA; numbered along this chain (parent)
chain: MQFNIPTLLTLFRVILIPFFVLVFYLPVTWSPFAAALIFCVAAVTDWFDGFLARRWNQSTRFGAFLDPVADKVLVAIAMVLVTEHYHSWWVTLPAATMIAREIIISALREWMAELGKRSSVAVSWIGKVKTTAQMVALAWLLWRPNIWVEYAGIALFFVAAVLTLWSMLQYLSAARADLLDQ

Variants of: B1
Assay: barcode share on antibiotic plates over drug-free plates; higher = less susceptible
Conditions: with Escherichia coli (laboratory strain); antibiotic: carbenicillin; 2× MIC (3.1 µg/mL)
Protocol: (§1)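 A pool of E. coli strains, each edited to carry one amino-acid change in an essential protein, was grown for 48 h on minimal glucose agar with or without antibiotic; strain barcodes were sequenced; mean of two replicates.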

Q: I8A was tested. Which “fold change of barcode share” value did it give?
A: 0.271 ± 0.013

Q: How did the “fold change of barcode share” value turn out when M140W was run?
A: 0.315 ± 0.083

Q: M140D was tested. Which “fold change of barcode share” value did it give?
A: 0.266 ± 0.11

Q: For I228Q, which “fold change of barcode share” value is on record?
A: 0.525 ± 0.48

Q: With F34Q as the variant, how does the “fold change of barcode share” value read?
A: 0.251 ± 0.022

Q: How did the “fold change of barcode share” value turn out when I228D was run?
A: 0.229 ± 0.0056

Q: L284A was tested. Which “fold change of barcode share” value did it give?
A: 0.244 ± 0.022

Q: Which “fold change of barcode share” value does the source give for F9W here?
A: 0.196 ± 0.0053

Q: F34W was tested. Which “fold change of barcode share” value did it give?
A: 0.284 ± 0.031

Q: Which “fold change of barcode share” value does the source give for L282W here?
A: 0.246 ± 0.032

Q: How did the “fold change of barcode share” value turn out when I228W was run?
A: 0.293 ± 0.034

Q: For M140Q, which “fold change of barcode share” value is on record?
A: 0.184 ± 0.0071

Q: Which “fold change of barcode share” value does the source give for F9A here?
A: 0.238 ± 0.063

Same assay, conditions: with Escherichia coli (laboratory strain); antibiotic: gentamicin; 2× MIC (MIC 0.45 µg/mL)

Q: I8A was tested. Which “fold change of barcode share” value did it give?
A: 0.0108 ± 0.011

Q: With M140W as the variant, how does the “fold change of barcode share” value read?
A: < 0.0195

Q: Which “fold change of barcode share” value does the source give for M140D here?
A: < 0.0104

Q: I228Q was tested. Which “fold change of barcode share” value did it give?
A: < 0.00477

Q: For F34Q, which “fold change of barcode share” value is on record?
A: < 0.00357

Q: For I228D, which “fold change of barcode share” value is on record?
A: < 0.0142

Q: F9W was tested. Which “fold change of barcode share” value did it give?
A: < 0.011

Q: For F34W, which “fold change of barcode share” value is on record?
A: < 0.00288

Q: How did the “fold change of barcode share” value turn out when I228W was run?
A: < 0.0035

Q: With M140Q as the variant, how does the “fold change of barcode share” value read?
A: < 0.00879

Q: F9A was tested. Which “fold change of barcode share” value did it give?
A: < 0.00506

Q: L172A was tested. Which “fold change of barcode share” value did it give?
A: < 0.0077

Q: Which “fold change of barcode share” value does the source give for F34P here?
A: < 0.0129

Variants of: B2
Assay: as above
Conditions: with Escherichia coli (laboratory strain); antibiotic: carbenicillin; 2× MIC (3.1 µg/mL)
Protocol: as §1

Q: L10A was tested. Which “fold change of barcode share” value did it give?
A: 0.527 ± 0.024

Q: How did the “fold change of barcode share” value turn out when L10D was run?
A: 9.74 ± 4

Q: L10P was tested. Which “fold change of barcode share” value did it give?
A: 23.6 ± 11

Q: Which “fold change of barcode share” value does the source give for L10Q here?
A: 0.777 ± 0.18

Q: L72Q was tested. Which “fold change of barcode share” value did it give?
A: 0.764 ± 0.31

Q: With L72W as the variant, how does the “fold change of barcode share” value read?
A: 0.397 ± 0.085

Q: How did the “fold change of barcode share” value turn out when F73A was run?
A: 0.656 ± 0.11

Q: For F73Q, which “fold change of barcode share” value is on record?
A: 0.499 ± 0.23

Q: Which “fold change of barcode share” value does the source give for F73W here?
A: 0.399 ± 0.12

Q: For I134W, which “fold change of barcode share” value is on record?
A: 0.61 ± 0.051

Q: V137A was tested. Which “fold change of barcode share” value did it give?
A: 0.48 ± 0.043

Q: With V137Q as the variant, how does the “fold change of barcode share” value read?
A: 1.75 ± 0.29

Q: V137W was tested. Which “fold change of barcode share” value did it give?
A: 1.05 ± 0.54

Q: With W205A as the variant, how does the “fold change of barcode share” value read?
A: 0.712 ± 0.19

Q: Which “fold change of barcode share” value does the source give for W205Q here?
A: 0.526 ± 0.29

Q: Which “fold change of barcode share” value does the source give for L308A here?
A: 0.432 ± 0.07

Q: L308Q was tested. Which “fold change of barcode share” value did it give?
A: 0.442 ± 0.14

Q: With L309A as the variant, how does the “fold change of barcode share” value read?
A: 0.748 ± 0.074

Q: L309Q was tested. Which “fold change of barcode share” value did it give?
A: 0.404 ± 0.11

Q: With L309W as the variant, how does the “fold change of barcode share” value read?
A: 0.648 ± 0.033

Same assay, conditions: with Escherichia coli (laboratory strain); antibiotic: gentamicin; 2× MIC (MIC 0.45 µg/mL)

Q: With L10A as the variant, how does the “fold change of barcode share” value read?
A: 0.00703 ± 0.00016

Q: L10Q was tested. Which “fold change of barcode share” value did it give?
A: 0.0123 ± 0.0095

Q: How did the “fold change of barcode share” value turn out when L72Q was run?
A: 0.0246 ± 0.0085

Q: How did the “fold change of barcode share” value turn out when L72W was run?
A: 0.0159 ± 0.01

Q: F73A was tested. Which “fold change of barcode share” value did it give?
A: 0.0141 ± 0.0051

Q: Which “fold change of barcode share” value does the source give for F73Q here?
A: 0.00801 ± 0.0033

Q: F73W was tested. Which “fold change of barcode share” value did it give?
A: 0.0102 ± 0.0028

Q: How did the “fold change of barcode share” value turn out when I134W was run?
A: 0.0162 ± 0.0069

Q: With V137A as the variant, how does the “fold change of barcode share” value read?
A: 0.0195 ± 0.017

Q: Which “fold change of barcode share” value does the source give for V137Q here?
A: 0.107 ± 0.04

Q: V137W was tested. Which “fold change of barcode share” value did it give?
A: 0.0106 ± 0.012

Q: For W205Q, which “fold change of barcode share” value is on record?
A: 0.0139 ± 0.0095

Q: Which “fold change of barcode share” value does the source give for L308A here?
A: < 0.0138

Q: How did the “fold change of barcode share” value turn out when L308Q was run?
A: < 0.00694

Q: For L309A, which “fold change of barcode share” value is on record?
A: < 0.0132

Q: How did the “fold change of barcode share” value turn out when L309Q was run?
A: < 0.00702

Q: With L309W as the variant, how does the “fold change of barcode share” value read?
A: 0.0148 ± 0.0076

Q: For L308P, which “fold change of barcode share” value is on record?
A: < 0.0188

Variants of: B3
Assay: as above
Conditions: with Escherichia coli (laboratory strain); antibiotic: carbenicillin; 2× MIC (3.1 µg/mL)
Protocol: as §1

Q: L37A was tested. Which “fold change of barcode share” value did it give?
A: 0.262 ± 0.083

Q: With L37D as the variant, how does the “fold change of barcode share” value read?
A: 0.319 ± 0.1

Q: With L37P as the variant, how does the “fold change of barcode share” value read?
A: 0.166 ± 0.024

Q: How did the “fold change of barcode share” value turn out when L37Q was run?
A: 0.8538 ± 0.0055

Q: How did the “fold change of barcode share” value turn out when L37W was run?
A: 0.23 ± 0.1

Q: How did the “fold change of barcode share” value turn out when I38A was run?
A: 0.287 ± 0.019

Q: With I38P as the variant, how does the “fold change of barcode share” value read?
A: 0.224 ± 0.082

Q: Which “fold change of barcode share” value does the source give for I38Q here?
A: 0.226 ± 0.11

Q: For I38W, which “fold change of barcode share” value is on record?
A: 0.401 ± 0.13

Q: Which “fold change of barcode share” value does the source give for F39A here?
A: 0.189 ± 0.016

Q: How did the “fold change of barcode share” value turn out when F39Q was run?
A: 0.154 ± 0.036

Q: For F39W, which “fold change of barcode share” value is on record?
A: 0.282 ± 0.045

Q: With V41A as the variant, how does the “fold change of barcode share” value read?
A: 0.349 ± 0.097

Q: With V41Q as the variant, how does the “fold change of barcode share” value read?
A: 0.351 ± 0.15

Q: For V41W, which “fold change of barcode share” value is on record?
A: 0.288 ± 0.022

Q: Which “fold change of barcode share” value does the source give for V44A here?
A: 0.315 ± 0.12

Q: How did the “fold change of barcode share” value turn out when V44P was run?
A: 0.184 ± 0.059

Q: For V44Q, which “fold change of barcode share” value is on record?
A: 1.02 ± 1.1

Q: For V44W, which “fold change of barcode share” value is on record?
A: 0.18 ± 0.039

Q: For I126A, which “fold change of barcode share” value is on record?
A: 0.334 ± 0.044

Q: Which “fold change of barcode share” value does the source give for I126D here?
A: 0.332 ± 0.15

Same assay, conditions: with Escherichia coli (laboratory strain); antibiotic: gentamicin; 2× MIC (MIC 0.45 µg/mL)

Q: With L37A as the variant, how does the “fold change of barcode share” value read?
A: < 0.00784

Q: Which “fold change of barcode share” value does the source give for L37D here?
A: 2.5 ± 1.2

Q: With L37P as the variant, how does the “fold change of barcode share” value read?
A: 16.3 ± 18

Q: With L37Q as the variant, how does the “fold change of barcode share” value read?
A: < 0.00641

Q: L37W was tested. Which “fold change of barcode share” value did it give?
A: 0.00638 ± 0.00099

Q: With I38A as the variant, how does the “fold change of barcode share” value read?
A: 0.0171 ± 0.0087

Q: Which “fold change of barcode share” value does the source give for I38P here?
A: 784 [active]

Q: I38Q was tested. Which “fold change of barcode share” value did it give?
A: 63.2 ± 64

Q: For I38W, which “fold change of barcode share” value is on record?
A: 0.707 ± 0.71

Q: How did the “fold change of barcode share” value turn out when F39A was run?
A: 93.9 [active]

Q: How did the “fold change of barcode share” value turn out when F39Q was run?
A: 27.7 ± 36

Q: How did the “fold change of barcode share” value turn out when F39W was run?
A: 0.0873 ± 0.042

Q: How did the “fold change of barcode share” value turn out when V41A was run?
A: < 0.00505

Q: V41Q was tested. Which “fold change of barcode share” value did it give?
A: 0.67 ± 0.94

Q: With V41W as the variant, how does the “fold change of barcode share” value read?
A: 0.0794 ± 0.11

Q: Which “fold change of barcode share” value does the source give for V44A here?
A: < 0.00364

Q: Which “fold change of barcode share” value does the source give for V44P here?
A: 244 [active]

Q: For V44Q, which “fold change of barcode share” value is on record?
A: 16.8 ± 21

Q: Which “fold change of barcode share” value does the source give for V44W here?
A: 0.275 ± 0.39

Q: With I126A as the variant, how does the “fold change of barcode share” value read?
A: < 0.00662

Q: Which “fold change of barcode share” value does the source give for I126D here?
A: 0.0178 ± 0.0094

From the supplement of paper PMC11876631
